The other results are listed elsewhere or left out.

Consider 81 compounds from article PMC12040169 (PLOS Biology, 2025).

This assay deals with T1, C. trachomatis L2/434/Bu expressing GFP (CTL2-GFP).
T1 construct: L2/434/Bu GFP intracellular growth in HeLa cells
Details: species or system HeLa; C. trachomatis total inclusion area by high-content imaging, normalised to DMSO. The following applies: total inclusion area; 28.5 h, 10 µM; inhibitor. The gist of the method:
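High-content imaging followed the bulk GFP/resorufin measurement: fixed, Hoechst-stained cells were scored for GFP inclusions and host nuclei per well. Total inclusion area and count served as growth proxies, nuclei number as the viability proxy. MIC calculation matched the bulk assay.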
`Cc1c(S(=O)(=O)Nc2ccc(C(=O)c3ccccc3)cc2)cnn1-c1ccccc1` [CBK051034]: the “% of control remaining” value was found to be 107.626.

With `CCOC(=O)Nc1ccc2c(c1)N(C(=O)CN(C)C)c1ccccc1S2` [CBK261290C], the “% of control remaining” value is recorded as 73.6961.

As for `COc1ccc(-c2ccc(CCC(=O)O)n2CCc2ccccc2)cc1` [CBK265929], the “% of control remaining” value turned out to be 60.3693.

In the case of `O=C(C1CCCC1)N1CCCC(c2nccnc2-c2cccc(C(F)(F)F)c2)C1` (stereo not drawn) [CBK286221], the “% of control remaining” value worked out at 84.6151.

`COc1ccccc1Cc1cccc(C2CCN(CC(=O)Nc3nccs3)CC2)n1` [CBK286227]: the “% of control remaining” value is recorded as 117.789.

For `O=C(CSc1ccccn1)Nc1ccc2ccccc2c1` [CBK263860], the “% of control remaining” value was 105.577.

Consider `CC(Cc1cccs1)C(=O)N1CCn2cnnc2C1` (stereo not drawn) [CBK282109], for which the “% of control remaining” value came out at 94.0714.

Consider `O=C(Nc1ccc2ncccc2c1)c1ccc(F)cc1Cl` [CBK159796], for which the “% of control remaining” value worked out at 83.423.

Consider `O=[N+]([O-])c1cc(S(=O)(=O)n2ccc3ccccc32)ccc1N1CCNCC1` [CBK024593C], for which the “% of control remaining” value is on record as 69.3895.

With `Cc1cc(=O)n2ncnc2n1COCCO` [CBK262919], the “% of control remaining” value is listed as 101.57.

With `Clc1ccc2nc(-c3ccccn3)[nH]c2c1` [CBK000116], the “% of control remaining” value worked out at 6.069.

On to `COc1ccc(-n2cc(-c3ccc(C(F)(F)F)cc3)nn2)cc1OC` [CBK112952], for which the “% of control remaining” value was found to be 80.8102.

For the compound `O=C(NCc1n[nH]c(=O)c2ccccc12)Nc1ccc(F)cc1` [CBK287744], the “% of control remaining” value worked out at 118.837.

As to `CCc1n[nH]c(C2CN(Cc3nc4c(F)cccc4[nH]3)CCO2)n1` (stereo not drawn) [CBK304117], the “% of control remaining” value is 24.4681.

Take `c1ccc2cc(-c3cn4ccnc4c(Nc4ccc(N5CCOCC5)cc4)n3)ccc2c1` [CBK066359]: the “% of control remaining” value is given as 67.6703.

For the compound `CCOC(=O)c1cnc(SC)nc1NCCc1c[nH]cn1` [CBK086623], the “% of control remaining” value came to 93.0297.

Consider `O=C(NCc1ccccn1)c1ccc(-n2ccnc2)c(-n2cccc2)c1` [CBK285347], for which the “% of control remaining” value was determined as 111.291.

For `O=[N+]([O-])c1ccc(C(O)CNC(=S)Nc2ccccc2)cc1` (stereo not drawn) [CBK261086], the “% of control remaining” value amounted to 80.9023.

For `O=C(CC1CS(=O)(=O)CC1CC(=O)Nc1cccc(Cl)c1Cl)Nc1cccc(Cl)c1Cl` (stereo not drawn) [CBK262404], the “% of control remaining” value stood at 108.081.

`Cc1nn(CC(=O)N(C)Cc2cnccn2)c(=O)c2ccccc12` [CBK304356]: the “% of control remaining” value is reported as 136.975.

Turning to `Nc1ncc(-c2cccc(F)c2)nc1-c1ccc(C(=O)N2CCOCC2)cc1` [CBK064131], the “% of control remaining” value was 90.7932.

As to `NC(=O)CN1CCN(CCc2ccccc2)CC1` [CBK126429], the “% of control remaining” value turned out to be 105.438.

As to `CCC(CN1CCN(C)CC1)NC(=O)C1(c2ccc(F)cc2)CC1` (stereo not drawn) [CBK282785], the “% of control remaining” value is reported as 113.737.

With `CC1(C)CC(NC(=O)C2CCN(S(C)(=O)=O)CC2)c2ccccc2O1` (stereo not drawn) [CBK304404], the “% of control remaining” value worked out at 76.7101.

For `FC(F)(F)c1cccc(Sc2cccc3ccccc23)n1` [CBK091449], the “% of control remaining” value is 75.7372.

Regarding `O=C(N[C@H]1C[C@H]2C(=O)Nc3ccc(-c4ccsc4)cc3C(=O)N2C1)c1ccccc1` [CBK289361], the “% of control remaining” value came out at 85.2246.

In the case of `O=C(Cn1ccc(=O)[nH]c1=O)Nc1ccc(OCC(F)(F)F)cc1` [CBK305879], the “% of control remaining” value is given as 32.8548.

Take `Nc1ncc(-c2ccc(C(=O)N3CCOCC3)cc2)cc1C(=O)NCc1c(F)cccc1F` [CBK158569]: the “% of control remaining” value was 90.74.

As for `COc1ccc(CNC(=O)C2CCCN(S(C)(=O)=O)C2)cc1OC` (stereo not drawn) [CBK299830], the “% of control remaining” value is on record as 78.0398.

As for `CCCC(=O)Nc1ccc(-c2csc(N3CCCC3=O)n2)cc1` [CBK306088], the “% of control remaining” value is 56.9738.

For `COc1ccc(Oc2nccnc2N2CCN(Cc3ccc4c(c3)OCO4)CC2)cc1OC` [CBK083048T], the “% of control remaining” value is given as 96.7989.

Turning to `O=c1[nH]nc2n1-c1ccccc1OC2` [CBK010583], the “% of control remaining” value was 60.8775.

Regarding `CN1CCCC(C(=O)Nc2cnc(-c3cccc(C(F)(F)F)c3)c(-c3cccnc3)n2)C1` (stereo not drawn) [CBK036787], the “% of control remaining” value is 87.9281.

Turning to `COc1ccc(N2CCN(c3nc(NCCO)nc(OC)n3)CC2)cc1` [CBK265478], the “% of control remaining” value is given as 92.9603.

With `O=C(O)c1cccc(CSc2nnc(Cc3ccccc3)o2)c1` [CBK268060], the “% of control remaining” value turned out to be 108.116.

As for `CC1(C)CC(NCC(O)COc2cc(C(C)(C)C)c(O)c(C(C)(C)C)c2)CC(C)(C)N1` (stereo not drawn) [CBK264564], the “% of control remaining” value was found to be 104.468.

In the case of `CN1CCC[C@H]1c1nc(-c2ccc(-n3ccnc3)nc2)no1` [CBK288893], the “% of control remaining” value was 134.7.

Take `Cc1c(C(=O)NCCCN2CCOCC2)oc2c1C(=O)CCC2` [CBK270207]: the “% of control remaining” value is recorded as 100.054.

Turning to `O=C(Cc1ccccc1)NN1C(=O)/C(=C/c2ccccc2C(=O)O)SC1=S` [CBK262975], the “% of control remaining” value was determined as 100.93.

For `Cc1ncsc1CCOc1cc(NC(C)C)ncn1` [CBK115884], the “% of control remaining” value is on record as 98.0726.

`CC[C@H]1C[N@@]2CC[C@H]1C[C@@H]2CNS(=O)(=O)c1cccc(C#N)c1` [CBK288746]: the “% of control remaining” value came out at 99.946.

Turning to `O=C(O)c1ccccc1C1SCCCS1` [CBK016303], the “% of control remaining” value came to 106.027.

As for `O=C(CCc1ccco1)N1CCCCC1c1nc2ccccc2[nH]1` (stereo not drawn) [CBK283711], the “% of control remaining” value was 97.9929.

Take `CCC(CC)C(=O)N(C)c1c(C)nc2ccc(C(=O)N3CCN(S(=O)(=O)CC)CC3)cn12` [CBK146524]: the “% of control remaining” value came to 92.5579.

As to `O=S(=O)(Nc1nnn[nH]1)c1ccc(N2CCOCC2)nc1` [CBK062385], the “% of control remaining” value worked out at 75.7766.

With `Cc1ccc2[nH]c(Nc3nc(C)cc(C)n3)nc2c1` [CBK263634], the “% of control remaining” value is 107.905.

In the case of `CN(Cc1ccccc1)c1nccnc1-c1ccc(F)c(Cl)c1` [CBK037997], the “% of control remaining” value turned out to be 120.953.

For `CCc1nnc(NS(=O)(=O)c2ccc(NCc3cc(Cl)ccc3O)cc2)s1` [CBK200051], the “% of control remaining” value came out at 67.4916.

In the case of `O=C(c1ccccc1F)N1CCCC(c2n[nH]c3ncccc23)C1` (stereo not drawn) [CBK282672], the “% of control remaining” value is listed as 129.414.

Consider `Cc1cc(C)c2cc(CNC3CC3)c3nn(C)c(=O)n3c2c1` [CBK283186], for which the “% of control remaining” value is listed as 106.373.

As to `CCc1cc(Br)ccc1S(=O)(=O)NCCC#N` [CBK044760], the “% of control remaining” value was 81.8686.

For the compound `c1cc(-c2nccnc2OC2CCCCC2)ccn1` [CBK106727], the “% of control remaining” value came to 97.764.

Consider `NC(=O)NC(CC(=O)N1CCN(c2nccs2)CC1)c1cccc(Br)c1` (stereo not drawn) [CBK304548], for which the “% of control remaining” value was 72.8276.

Turning to `CCC(=O)NC(c1ccc(OC)c(OC)c1)c1ccc2cccnc2c1O` (stereo not drawn) [CBK293926], the “% of control remaining” value is recorded as 83.0139.

As for `Clc1ccc(COc2cccc3c2CCCC3)cn1` [CBK002634], the “% of control remaining” value was found to be 90.1426.

For the compound `Cc1ccc(-c2cc(C(=O)NC3CN4CCC3CC4)[nH]n2)o1` (stereo not drawn) [CBK283276], the “% of control remaining” value came to 92.9254.

For `COc1ccc(CCNC(=O)c2cnoc2-c2ccc(C)cc2)cc1` [CBK153731], the “% of control remaining” value is 96.5811.

In the case of `CS(=O)(=O)c1ccc(-n2nnnc2CNC2(CO)CCCC2)cc1` [CBK304134], the “% of control remaining” value stood at 27.482.

Take `Nc1ncc(-c2ccc(Cl)cc2)c(C2CCCN(C(=O)Cc3c[nH]c4ccccc34)C2)n1` (stereo not drawn) [CBK285574]: the “% of control remaining” value is on record as 86.9012.

Regarding `CC1CCC(N(Cc2nnc(C(C)C)o2)CC2CCCO2)CC1` (stereo not drawn) [CBK305169], the “% of control remaining” value stood at 71.9758.

`CC1CCCCN1C(=O)Cn1cnc2c(Cl)cc(Cl)cc2c1=O` (stereo not drawn) [CBK306149]: the “% of control remaining” value is given as 73.5942.

`COc1ccccc1CC(C)NC(=O)c1csc(C(C)=O)c1` (stereo not drawn) [CBK282517]: the “% of control remaining” value worked out at 73.6785.

Take `Cc1nn(C)cc1-c1cncn1C(C)(C)CN1CCC(C)CC1` [CBK281740]: the “% of control remaining” value amounted to 114.78.

Take `CNC(=O)c1ccc(-c2cccc(Cl)c2Cl)nc1N1CCOCC1` [CBK106215]: the “% of control remaining” value turned out to be 92.1065.

Take `N#CCCN(CCC#N)C(=O)CN1C(=O)c2ccccc2C1=O` [CBK267100]: the “% of control remaining” value worked out at 111.842.

With `Clc1ccc(COc2ccnc(N3CCCNCC3)n2)cc1Cl` [CBK091550], the “% of control remaining” value turned out to be 53.0195.

With `COc1ccc(Cn2c(C3CCNCC3)cc3cccnc32)cc1` [CBK285077], the “% of control remaining” value came to 77.1926.

Consider `O=C(CCn1c(-c2ccccc2)c(-c2ccccc2)c2ccccc21)N/N=C/c1cccc(O)c1` [CBK262348], for which the “% of control remaining” value was 4.546.

As to `O=C(/C=C/c1cn([C@H]2C[C@@H](O)[C@@H](CO)O2)c(=O)[nH]c1=O)ON1C(=O)CCC1=O` [CBK201188], the “% of control remaining” value stood at 146.465.

In the case of `COc1cc(CNc2cc(-c3cccc4cccnc34)ncn2)cc(OC)c1OC` [CBK091179], the “% of control remaining” value stood at 80.0595.

For the compound `CN(C)CCNc1nc(-c2cccnc2)nc2ccccc12` [CBK264471C], the “% of control remaining” value was 111.895.

In the case of `CC(C)c1cc(C(=O)N2CC(N3CCOCC3)C2)nc2ncnn12` [CBK306572], the “% of control remaining” value stood at 85.7597.

Take `Cc1cc(CN(C)Cc2cnn(-c3ccc(F)cc3)c2)n[nH]1` [CBK281706]: the “% of control remaining” value is on record as 90.7362.

For the compound `CN(C)[C@H]1CCN(C(=O)c2ccc(Nc3cncc(Cl)n3)cn2)C1` [CBK172073], the “% of control remaining” value turned out to be 117.072.

For the compound `Cc1ccc(SCCNC(=O)C(C)Sc2ccc(Cl)cc2)cc1` (stereo not drawn) [CBK264104], the “% of control remaining” value came out at 101.217.

Turning to `CC(C)c1nccc(CN2CCC(CCN3CCCC3=O)CC2)n1` [CBK306887], the “% of control remaining” value was 39.3161.

For `COc1ccc2c(c1)C1(CC(=O)N(Cc3cccnc3)C1=O)C(=O)N2C` (stereo not drawn) [CBK075236], the “% of control remaining” value turned out to be 102.823.

On to `CC(C)C(=O)N1C[C@H]2N(C)C(=O)c3ccccc3C(=O)[C@@]2(C)C1` [CBK284568], for which the “% of control remaining” value is 118.155.

In the case of `Nc1cc(-c2cccs2)nn(Cc2ccccc2Cl)c1=O` [CBK282884], the “% of control remaining” value stood at 111.374.

On to `COCc1cccc(-c2nccnc2OC2CCCCC2)c1` [CBK106959], for which the “% of control remaining” value came to 105.971.

For `Cc1ccc(-c2nsc(SCC(=O)c3ccc(Cl)cc3)n2)cc1` [CBK113177], the “% of control remaining” value amounted to 108.937.
